This note sets out measurements from US20120269830A1, “CONJUGATES WITH IMPROVED PHARMACOKINETIC PROPERTIES” (priority 2009, published 2012).

The assay deals with GLP-1 receptor (Homo sapiens, UniProt P43220). The assay is described as follows: GLP-1 receptor / β-Arrestin β-galactosidase complementation reporter assay (DiscoverX PathHunter Express). Type of assay: cell-based. The following applies: GLP-1R reporter cells, FIG. 16. The source says: Common bioactivities for GLP-1 involve typical Gs-linked second messenger systems and reporter assays. GLP-1 receptor, like many GPCRs are subject to β-Arrestin binding that contributes to signal cessation following ligand stimulation. In this reporter assay GLP-1 receptor recombinantly fused to an amino terminal fragment of β-galactosidase (donor), while β-Arrestin is recombinantly fused to an amino terminal deletion mutant of β-galactosidase. When both of these recombinant constructs are present in cells the interaction of β-Arrestin and the GPCR following ligand stimulation forces the complementation of the two β-galactosidase fragments resulting in the formation of a functional enzyme that converts the β-galactosidase chemiluminescent substrate to detectable luminescent signal (DiscoverX-PathHunter Express).
A frozen aliquot of cells expressing GLP-1R/β-galactosidase (donor) and β-Arrestin/β-galactosidase (Acceptor) were seeded in 96-well and allowed to equilibrate for 48 hours at 37° C. in 0.1 ml OCC media (DiscoverX). Next 0.01 ml of test compounds were added to the cells and then incubated for 90 minutes at 37° C. Following the drug treatment 0.055 ml of working detection reagent solution (DiscoverX) was added and then incubated for 90 minutes at room temperature. After this ambient incubation the wells of the resulting plates were read using chemiluminescent plate reader.

Sequence of GLP-1 receptor (P43220 24-463): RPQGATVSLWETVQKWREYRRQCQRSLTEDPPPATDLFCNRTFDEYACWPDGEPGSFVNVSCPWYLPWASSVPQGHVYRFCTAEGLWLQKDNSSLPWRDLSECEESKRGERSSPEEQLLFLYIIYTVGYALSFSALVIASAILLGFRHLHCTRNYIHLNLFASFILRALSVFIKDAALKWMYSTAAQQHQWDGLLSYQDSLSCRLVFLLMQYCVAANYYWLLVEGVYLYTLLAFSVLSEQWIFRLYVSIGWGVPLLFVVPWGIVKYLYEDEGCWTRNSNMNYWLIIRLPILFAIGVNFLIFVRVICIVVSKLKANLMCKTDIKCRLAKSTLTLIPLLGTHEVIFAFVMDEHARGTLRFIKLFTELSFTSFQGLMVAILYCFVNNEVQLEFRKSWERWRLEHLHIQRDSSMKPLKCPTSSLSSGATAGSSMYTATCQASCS

B1: GLP-1 (Ser8) Surrobody with a 7 amino acid “GGSGGGS” linker: GLP-1 (Ser8) Surrobody with heptapeptide Gly-Gly-Ser-Gly-Gly-Gly-Ser linker (SEQ ID NO: 28) (protein)
chain: HSEGTFTSDVSSYLEGQAAKEFIAWLVKGRGGGSGGGSSVTHVFGSGTQLTVLSQPKATPSVTLFPPSSEELQANKATLVCLMNDFYPGILTVTWKADGTPITQGVEMTTPSKQSNNKYAASSYLSLTPEQWRSRRSYSCQVMHEGSTVEKTVAPAECS
heavy: [here about 100 residues without letters]YFDYWGQGTLVTVSSASTKGPSVFPLAPCSRSTSESTAALGCLVKDYFPEPVTVSWNSGALTSGVHTFPAVLQSSGLYSLSSVVTVPSSSLGTKTYTCNVDHKPSNTKVDKRV[here human IgG4 Fc without letters]
With B1, the “potency relative to similar molecule with 2 amino acid GA linker” value was “better potency”. In addition, where the note is “90 minutes at 37° C.”, the “potency relative to GLP-1 Ser8 positive control peptide” value is “equivalent potency”.
